{"source": "patent US11446314B2", "about": "“Immunoablative therapies” (AVM Biotechnology LLC, priority 2018, dated 2022)", "tested_on": "bone marrow mesenchymal stem cells", "experiment": "Horse sternal bone marrow MSC number and trilineage differentiation", "type": "in vivo", "settings": "horses, 6 mg/kg HED, one hour IV infusion", "data": [{"smiles": "C[C@@H]1C[C@H]2[C@@H]3CCC4=CC(=O)C=C[C@]4(C)[C@@]3(F)[C@@H](O)C[C@]2(C)[C@@]1(O)C(=O)CO", "note": "[dexamethasone]", "values": [{"measurement": "trilineage differentiation capacity of the MSC towards osteocytes, chondrocytes or adipocytes", "value": "did not alter"}]}]}
